Test results as given in publication PMC6919601, “Identification of Plasmodium dipeptidyl aminopeptidase allosteric inhibitors by high throughput screening” (PLoS ONE, 2019).
Among all 110,000 compounds or so, about 230 (0.21%) showed an effect of 50% or more. Some of the results follow.

biological target: DPAP1 (Plasmodium falciparum, UniProt Q8IIJ9); assay: primary screen, percent inhibition; read by cleavage of a fluorogenic dipeptide substrate; higher = more effect of the substance; set-up: species or system P. falciparum D10 trophozoite lysates; single well
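Note: 30 min substrate incubation versus DMSO and 10 µM JCP410 controls.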

Sequence of DPAP1 (Q8IIJ9 whole entry, looked up): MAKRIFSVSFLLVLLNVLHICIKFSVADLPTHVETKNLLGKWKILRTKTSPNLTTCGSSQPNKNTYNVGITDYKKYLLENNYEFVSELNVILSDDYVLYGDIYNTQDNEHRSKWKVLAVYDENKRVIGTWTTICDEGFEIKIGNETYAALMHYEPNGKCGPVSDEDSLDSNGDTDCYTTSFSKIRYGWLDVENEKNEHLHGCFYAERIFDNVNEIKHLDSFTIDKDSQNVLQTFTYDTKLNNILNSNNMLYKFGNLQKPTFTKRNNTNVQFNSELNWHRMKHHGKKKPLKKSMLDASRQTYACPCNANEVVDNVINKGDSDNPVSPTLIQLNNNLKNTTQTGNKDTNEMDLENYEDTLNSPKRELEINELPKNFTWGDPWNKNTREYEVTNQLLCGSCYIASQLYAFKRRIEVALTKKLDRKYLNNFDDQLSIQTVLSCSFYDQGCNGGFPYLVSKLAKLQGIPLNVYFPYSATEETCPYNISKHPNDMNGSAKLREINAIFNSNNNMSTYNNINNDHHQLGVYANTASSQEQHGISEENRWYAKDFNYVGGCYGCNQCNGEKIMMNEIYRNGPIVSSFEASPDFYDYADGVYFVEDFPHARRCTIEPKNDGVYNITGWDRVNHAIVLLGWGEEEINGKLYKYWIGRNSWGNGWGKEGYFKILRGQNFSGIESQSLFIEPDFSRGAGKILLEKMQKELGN

Row | Compound | % Inhibition @ 10 uM [%]
1 | CC(=O)c1ccc2c(c1)c1ccccc1n2CC(C)C | -2.98
2 | CC(=O)Nc1c(Cl)cnn(-c2ccccc2)c1=O | 2.22
3 | CCOc1ccc(-n2c(C)c(C(C)=O)c(C(C)=O)c2C)cc1 | -0.297
4 | CC(C)(C)c1ccc(-c2nnc(SCC(=O)N3CCCCC3)o2)cc1 | -4.66
5 | CCOC(=O)C1CCCN(Cc2ccc(F)c(F)c2)C1 (stereo not shown) | -2.25
6 | CC(C)NC(=O)C(=O)Nc1cccc(Cl)c1 | -0.631
7 | CCOC(=O)c1c(C)n(CCOc2ccccc2Cl)c2ccc(O)cc12 | 5.55
8 | Cc1cc(/C=C2\NC(=O)NC2=O)c(C)n1-c1ccc(Br)cc1F | -3.87
9 | COC(=O)C1=C(C)NC(=O)CC1c1cccc2ccccc12 (stereo not shown) | 0.736
10 | c1ccc2sc(N3CN(CCCN4CCOCC4)CN(c4nc5ccccc5s4)C3)nc2c1 | -1.52
11 | O=C1c2cccnc2C(=O)N1Cc1ccc(S(=O)(=O)NC2CCCC2)s1 | -4.03
12 | COc1ccc(CN2CCN(C(=O)c3cccc(Cl)c3)CC2)cc1OC | 5.6
13 | COC(=O)c1ccc(C2Oc3c(OC)cccc3C3CC(c4ccc(F)cc4)=NN32)cc1 (stereo not shown) | 19.2
14 | FC(F)(F)c1ccccc1CNC1CCN(Cc2ccccc2)CC1 | -1.75
15 | CC(=O)N1C(C(=O)O)CSC12CCN(C)CC2 (stereo not shown) | -1.7
16 | COc1cccc(S(=O)(=O)Nc2ccc(C(=O)Nc3cccc(C(F)(F)F)c3)cc2)c1 | -5.6
17 | COc1ccc([N+](=O)[O-])cc1NC1CCCC(C)C1 (stereo not shown) | -1.54
18 | COc1ccc2c(CNCc3cc(Br)ccc3OC)c(C(=O)O)n(C)c2c1 | -5.99
19 | O=C(Nc1nonc1N1C(=O)c2ccccc2C1=O)c1ccco1 | -5.72
20 | CCCN(CC1CC1)C1CCN(CC)CC1 | -3.6
21 | O=c1cc(C(F)(F)C(F)(F)C(F)(F)C(F)F)oc2ccccc12 | 0.131
22 | COC(=O)C1=C(C)NC(=O)/C1=C\c1cccc2ccccc12 | 1.81
23 | CNS(=O)(=O)c1cn(CC(=O)Nc2nc3ccc(OC)cc3s2)cc1S(=O)(=O)NC | -1.59
24 | Cc1ccc(Cn2c(C)c(CNCC3CCCO3)c(C(=O)O)c2C)cc1 (stereo not shown) | -5.49
25 | O=C(O)C12CC3CC(C1)CC(n1ncc(N4CCC(c5ccccc5)C4)c(Cl)c1=O)(C3)C2 (stereo not shown) | 5.43

Row | Compound | % Inhibition @ 10 uM [%]
26 | COc1cc(/C=C2\SC(NC(C)=O)=NC2=O)cc2sc(=O)oc12 | 26.6
27 | CCOC(=O)C1=C(C)NC(=O)NC1c1cccc(C(F)(F)F)c1 (stereo not shown) | 0.132
28 | COc1ccc(-n2c(CNCc3ccc4c(c3)OCO4)nc3ccccc3c2=O)cc1 | -7.17
29 | CCOC(=O)c1c(C)[nH]c(C)c1S(=O)(=O)N1CCC(c2ccccc2)C1 (stereo not shown) | 2.41
30 | Cc1ccccc1Cn1c(C(=O)O)c(CNCCc2ccc(S(N)(=O)=O)cc2)c2ccccc21 | -1.34
31 | CCOc1ccc(-c2cc(C)n3nc(C(=O)NCc4ccco4)cc3n2)cc1 | 0.221
32 | Cc1noc2ncnc(N3CC=C(c4ccccc4)CC3)c12 | -5.58
33 | COc1ccc(-n2c3c(c(=O)[nH]c2=O)C(NC(=O)c2cccs2)(C(F)(F)F)C(=O)N3)cc1 (stereo not shown) | -4.97
34 | CS(=O)(=O)CCC(C(=O)NCCc1ccc(Cl)cc1)N1Cc2ccccc2C1=O (stereo not shown) | -0.769
35 | CCOc1ccc(-c2csc3nc4ccccc4n23)cc1 | -1.36
36 | c1ccc(N2CCN(C3CCCCCC3)CC2)cc1 | -3.6
37 | Cc1ccc(S(=O)(=O)NCc2ccc(C(=O)NCCc3ccc(S(N)(=O)=O)cc3)cc2)cc1 | 0.718
38 | CC1CCN(S(=O)(=O)c2ccc(Cc3ccc(S(=O)(=O)N4CCC(C)CC4)cc3)cc2)CC1 | 1.17
39 | COc1ccc(C(=O)Nc2cccc(O)c2)cc1Cl | 3.81
40 | COC(=O)C1=C(C)N(C)C(=O)NC1c1cccc(OC)c1 (stereo not shown) | 1.61
41 | COc1ccc(CCN2C(=O)CC(C(C)c3ccccc3)C2=O)cc1OC (stereo not shown) | 3.09
42 | CC12CN3CC(C)(CN(C1)C3c1ccc(O)cc1O)C2=O (stereo not shown) | -0.807
43 | N#CCNC(=O)[C@H](CSCc1ccccc1)NC(=O)c1ccc(O)cc1 | -4.82
44 | Cc1nc2c(sc3nc4c(cc32)COC(C)(C)C4)c(=O)n1CCN1CCOCC1 | 2.69
45 | O=S1(=O)C(/C=N/Cc2cccs2)=C(O)c2sccc2N1Cc1ccc(Cl)cc1 | -1.07
46 | CCOc1cc(/C=C2/SC(=O)N(C(C)C)C2=O)cc(Cl)c1OCC(=O)O | -0.95
47 | COc1cc(NS(=O)(=O)c2ccc(NC(=O)C(C)(C)C)cc2)nc(OC)n1 | -2.15
48 | CCOc1ccccc1N(CC(=O)NC1CCCC1)S(=O)(=O)c1ccc(C)cc1 | -8.61
49 | O=C(NCCc1ccccc1)c1cc(-c2ccc(Br)cc2)n[nH]1 | 5.93
50 | COc1cc(C2N3CC4(C)CN2CC(C)(C3)C4=O)ccc1O (stereo not shown) | -2.55

Row | Compound | % Inhibition @ 10 uM [%]
51 | Cc1cccc(C)c1NC(=O)c1cnn(C)c1C | -4.18
52 | CCN(CC)CCNc1nc2c(c(=O)n(C)c(=O)n2C)n1Cc1c(F)cccc1Cl | -3.53
53 | Cc1ccc(Cn2c(C)c(CNCCc3ccccc3C)c(C(=O)O)c2C)cc1 | -9.31
54 | COC(=O)c1nnn(-c2ccc(C)c(C)c2)c1C(=O)OC | 1.85
55 | COc1cccc(C(=O)Nc2ccc3nn(-c4ccc(N(C)C)cc4)nc3c2)c1 | 20.6
56 | CC1CCCN(C/C=C/c2ccc(N(C)C)cc2)C1 (stereo not shown) | -5.94
57 | COc1cc(C2C3=C(O)CC(C)(C)CC3=NC(C)=C2C(=O)Nc2ccccn2)cc(OC)c1OC (stereo not shown) | -2.07
58 | O=C(N1CCN(Cc2ccc3c(c2)OCO3)CC1)N(c1ccccc1)c1ccccc1 | -1.95
59 | COc1ccc2c(CNCCc3ccc(C)cc3)c(C(=O)O)n(Cc3cccc(F)c3)c2c1 | 2.96
60 | CCOC(=O)N1CCC(N2C(=O)c3ccc(C(=O)NCCOC)cc3C2=O)CC1 | -4.69
61 | O=C(NCc1ccc(CNC(=O)c2ccccc2)cc1)c1ccccc1 | 0.0345
62 | O=C(NCc1ccco1)C1CCN(c2nc3ccccc3n2Cc2ccccc2F)CC1 | -1.36
63 | CCN(CC)CCN1C(=O)C(O)=C(C(=O)c2ccc3c(c2)CC(C)O3)C1c1cccs1 (stereo not shown) | -1.78
64 | CCOC(=O)c1c(N)nn(C(=O)c2ccccc2)c1-c1ccccc1 | 1.62
65 | COc1ccc(CN2CCN(c3ccccc3)CC2)cc1C | -0.192
66 | N#CCNC(=O)[C@H](CS(=O)(=O)Cc1ccccc1)NC(=O)c1cc2ccccc2o1 | -1.7
67 | N#CCNC(=O)C(CC1CCCCC1)C(=O)NCc1ccc([N+](=O)[O-])cc1 (stereo not shown) | -2.03
68 | N#C/C(=C/c1ccc(O)cc1)c1nc(-c2ccc(Cl)c(Cl)c2)cs1 | 1.44
69 | CC(C(=O)NCc1ccco1)n1ccc2cc(S(=O)(=O)N3CCCC3)ccc21 (stereo not shown) | -3.26
70 | CCN1CCN(C(=S)Nc2ccsc2C(=O)OC)CC1 | 5.95
71 | CCOC(=O)C1=C(CC)OC(N)=C(C#N)C1c1ccsc1 (stereo not shown) | 1.08
72 | Cc1ccc(C(=O)C2(C)N(O)C(C)C(c3cccs3)=[N+]2[O-])cc1 (stereo not shown) | 1.84
73 | CCOC(=O)c1oc2ccc(Br)cc2c1NC(=O)CCN1CCCCC1 | 4.95
74 | COc1cc(OC)c(NS(=O)(=O)c2ccccc2)cc1Cl | -5.13
75 | CCOc1ccccc1NC(=O)c1ccncc1 | -0.00273

Row | Compound | % Inhibition @ 10 uM [%]
76 | O=S(=O)(Nc1ccc(S(=O)(=O)N2CCOCC2)cc1)c1ccc2ccccc2c1 | -1.17
77 | COc1ccc(C(=O)Nc2cccc(C)c2)cc1S(=O)(=O)N1CCOCC1 | 2.43
78 | COc1ccc(OC)c(-c2cc(C(=O)Nc3cccnc3Cl)c3ccccc3n2)c1 | 0.907
79 | CSc1nc2c(sc3ccccc32)c(=O)n1CCCC(=O)NCC1CCCO1 (stereo not shown) | 2.47
80 | O=C(Nc1cc(C(F)(F)F)ccc1Cl)c1ccc([N+](=O)[O-])o1 | -1.64
81 | COc1cccc2c(O)c3c(cnn3C)nc12 | -2.63
82 | COc1ccc(-n2cnc3ccccc32)cc1OC | -10.9
83 | O=C(NCc1ccc(Cl)cc1)C1CCCN(c2ncnc3c2sc2cccc(F)c23)C1 (stereo not shown) | 4.02
84 | Cc1ccc(S(=O)(=O)N(C)CCCC(=O)Nc2cccc(C)c2)cc1 | -3.78
85 | Cc1cc(C)cc(NC(=O)CN(c2cccc(Cl)c2C)S(C)(=O)=O)c1 | -5.92
86 | O=C(c1ccco1)N1CCN(c2cnn(-c3nc4ccccc4s3)c(=O)c2Cl)CC1 | 4.47
87 | Cc1cc(NC(=O)CSc2nc3cccnc3[nH]2)no1 | -1.75
88 | c1ccc(-c2nnc(CN3CCN(C4CCCCC4)CC3)o2)cc1 | 4.95
89 | Cc1nc2sc3c(c2c(=O)o1)CCC(C)C3 (stereo not shown) | 0.00773
90 | CN(C)CC(C)(C)CNC1C2CC3CC(C2)CC1C3 (stereo not shown) | -0.603
91 | Cc1cc(NC(=O)c2ccc(F)cc2)n(Cc2cccc3ccccc23)n1 | -2.28
92 | CC(C)[C@H](NC(=O)OCc1ccccc1)C(=O)NCC#N | -10.7
93 | CCN(CC)CCNC(=O)Cn1ncc2c(C)n(Cc3ccccc3)c(C)c2c1=O | -5.81
94 | Cc1cccnc1NCC(O)COc1ccccc1 (stereo not shown) | -4.35
95 | Cc1cc([N+](=O)[O-])nn1CC(=O)NCC(C)C | -5.11
96 | COc1ccc(CNCc2c(C(=O)O)c(C)n(Cc3ccccc3C)c2C)cc1 | -3.67
97 | Cc1ccc(NC(=O)c2c(C(=O)O)cccc2[N+](=O)[O-])cc1 | 1.9
